# According to the RNAGym collection of RNA variant scans (doi:10.1093/nar/gkz1192):
# The source gives no read counts; variants with many changes may rest on few reads.
# B1: CPEB3 Ribozyme (parent)
# chain: UAACAGGGGGCCACAGCAGAAGCGUUCACGUCGCAGCCCCUGUCAGAUUCUGGUGAAUCUGCGAAUUCUGCUGUAUAUCUC
# Variants of: B1
# Test: self-cleavage, relative activity (ratio to wild type); higher = more cleavage; in vitro, sequencing
# Method in brief: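 After error-prone PCR and barcoding, CPEB3 ribozyme mutant libraries were transcribed with T7 RNA polymerase at 37°C for 5 hours, then given 15 min with DNase I before an EDTA stop, and they cleaved during both steps. Reverse transcription with template switching preceded Illumina sequencing. Relative activity divides a variant's cleaved/total read fraction by the unmutated ribozyme's. At least 5 reads were required per variant, and three batches were averaged.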
row,Variant,self-cleavage
1,A3G C32U A45G A47G U80C,0.33
2,A3G C32U U41C A57G,0.19
3,A3G C32U U76A,0.46
4,A3G C34G C40A U60C,0.16
5,A3G C38A G52A A57G U60C U78C U80C,0.09
6,A3G C38A U54C G61A,0.11
7,A3G C38U A45U,0.16
8,A3G C38U U41C,0.94
9,A3G C38U U48C,0.46
10,A3G C39U C40U,0.27
11,A3G C39U U41C G53A A56G U72A,0.13
12,A3G C39U U54C U74A,0.75
13,A3G C40G A47U U69C,0.47
14,A3G C44A U78G,0.3
15,A3G C50A C62U U67C,0.09
16,A3G C50A G61A U76C,0.5
17,A3G C59G U69C,0.35
18,A3G C62U G70U A77U,0.11
19,A3G C71A U74C,0.72
20,A3G C71A U78C C79G,0.25
21,A3G G6A A15U G16A G33A C71A,0.15
22,A3G G6A A15U U41A A45U,0.12
23,A3G G6A A15U U49A A57C A77U U78C,0.05
24,A3G G6A A18U,0.09

row,Variant,self-cleavage
1,A3G G6A A28G U69A,0.02
2,A3G G6A A35U A77U,0.13
3,A3G G6A A35U U69A,0.38
4,A3G G6A A64G U80C,0.1
5,A3G G6A C11G C12U U25C,0.48
6,A3G G6A C12A U43C U74A U78C,0.05
7,A3G G6A C38A A45G U67C,0.17
8,A3G G6A G16U A57G G61A C62U U69C,0.04
9,A3G G6A G24A U31C A57G,0.09
10,A3G G6A U25C A65C,0.41
11,A3G G6A U54C,0.2
12,A3G G6A U58A U80A,0.29
13,A3G G6A U78C,0.54
14,A3G G6C A45G A56G,0.08
15,A3G G6C A65G,0.56
16,A3G G6C G8A A35U A45G U60C U69C,0.05
17,A3G G6U C11U A47G A56U A64G G70A,0.08
18,A3G G6U C17A A18G,0.03
19,A3G G6U C17U C29U U41A U49A,0.06
20,A3G G6U C59A,0.38
21,A3G G6U U25C A28G U43C U58C,0.21
22,A3G G6U U31A A45G,0.1
23,A3G G7A A15G A20G G42A G63A U80C,0.04
24,A3G G7A A21G A77U,0.5

row,Variant,self-cleavage
1,A3G G7A C29U A35G,0.1
2,A3G G7A G10C G24A U43A A64G U78A,0.06
3,A3G G7A U48C,0.51
4,A3G G7A U48C U74A,0.09
5,A3G G7C A18U A56U U72C U74A U80C,0.03
6,A3G G7C A20G U72A,0.06
7,A3G G7C U26C,0.42
8,A3G G7C U41A U43C A56G U60C G73A,0.08
9,A3G G7C U41C,0.11
10,A3G G7C U51A U66A,0.36
11,A3G G7U A20G G33U U54G,0.07
12,A3G G7U A64G,0.26
13,A3G G7U A65U,0.15
14,A3G G7U C37A A64G,0.05
15,A3G G7U G8A U26A U31A U69C,0.06
16,A3G G7U G33A C37U U48C C62A,0.05
17,A3G G7U U43C A45C,0.11
18,A3G G7U U54A A64G,0.07
19,A3G G7U U54C U58A,0.25
20,A3G G7U U60A U72C,0.05
21,A3G G8A A13U A20G G36A U58C U72C,0.05
22,A3G G8A A15G U26A G30A,0.63
23,A3G G8A A15U G19A U43A U78C,0.48
24,A3G G8A A15U U26A A35G U43C U51C,0.06

row,Variant,self-cleavage
1,A3G G8A A21G A35U U48C A57G,0.06
2,A3G G8A A21G A77G,0.51
3,A3G G8A A21G G22U A56G U58A A77G,0.06
4,A3G G8A A28G G33U A45G U49C,0.06
5,A3G G8A C11U U43C U80C,0.08
6,A3G G8A C14U C37A U60G U66C,0.03
7,A3G G8A G10A U60A U74C,0.1
8,A3G G8A U41C U51C U60C C71U,0.14
9,A3G G8C U25C U67C,0.32
10,A3G G8U A15C,0.77
11,A3G G8U A18G A21U U26C G36A U60A,0.03
12,A3G G8U A18G A45G U54C U74A A75U,0.06
13,A3G G8U U25C U26A U41A U43C U80C,0.31
14,A3G G8U U41A U66C,0.08
15,A3G G8U U60A U80C,0.33
16,A3G G9A A13U U43A A77G,0.69
17,A3G G9A A15G U26C C81U,0.1
18,A3G G9A A15U,0.14
19,A3G G9A A18G A45C A65G,0.2
20,A3G G9A A35G A57G,1.09
21,A3G G9A A35U,0.12
22,A3G G9A A64U,0.41
23,A3G G9A C11G U80C,0.42
24,A3G G9A C12U A20G U78A U80C,0.13

row,Variant,self-cleavage
1,A3G G9A G33A U51C A56C U58A U78A,0.06
2,A3G G9A U31A U74C,0.43
3,A3G G9A U41A U72C U78C,0.07
4,A3G G9A U60C,0.09
5,A3G G9A U67A A75G,0.06
6,A3G G9A U80A,0.25
7,A3G G9C A20G G24U U78C,0.35
8,A3G G9U A13U A20G A28G U41A A64G,0.07
9,A3G G9U A21G U78C,0.06
10,A3G G9U C12A,0.25
11,A3G G9U C40U U48A G61U,0.27
12,A3G G9U C68G U80A,0.05
13,A3G G9U G22U U67C U69C,0.14
14,A3G G10A A13U A20U U25C,0.39
15,A3G G10A A13U U31A U78C,0.09
16,A3G G10A A18U,0.16
17,A3G G10A A45U U72C A75G,0.2
18,A3G G10A C23A U31C U49C G63A U76C,0.05
19,A3G G10A C32U U78C U80G,0.06
20,A3G G10A C62U U78C,0.2
21,A3G G10A G30U A57G,0.23
22,A3G G10A G33C A45U U58A U60C G70U,0.03
23,A3G G10A U31C U41C U66C,0.08
24,A3G G10C A15C U48C,0.08

row,Variant,self-cleavage
1,A3G G10C U41C A56G U69C,0.1
2,A3G G10U A18U C34U U49C,0.05
3,A3G G10U A18U U51A,0.11
4,A3G G10U G33C U51C A57G U72C,0.06
5,A3G G10U U49C,0.32
6,A3G G10U U60A,0.08
7,A3G G16A A18G G33A C40A A64G U67C,0.11
8,A3G G16A U25G A56G,0.08
9,A3G G16A U41C,0.33
10,A3G G16C A45G A47G,0.11
11,A3G G16C A56U U67C,0.14
12,A3G G16C U67C,0.02
13,A3G G16U A21G U26C U43A U51A A64U,0.05
14,A3G G16U A28G U31A,0.37
15,A3G G16U U41A,0.11
16,A3G G19A U41C A56G U72G,0.35
17,A3G G19C U49A A65U,0.22
18,A3G G19C U54C,0.5
19,A3G G19U A20U A57G A65G U67C,0.05
20,A3G G19U A28G C29G A65G U78C U80C,0.2
21,A3G G22C U51C A56G C79A,0.34
22,A3G G22U A57G U60C U69C,0.12
23,A3G G24A C29G U60G,0.08
24,A3G G24A U25A,0.18

row,Variant,self-cleavage
1,A3G G24A U26C C29A A56G U72A,0.06
2,A3G G24A U26C U31A A35G,0.09
3,A3G G24A U31A U48C,0.18
4,A3G G24A U43C A65G,0.29
5,A3G G24A U49A A57G U58C U74A,0.13
6,A3G G24C A45G A57G U60A A64G U66C,0.35
7,A3G G24C U26A C40U U66A U72C,0.19
8,A3G G30A A35G,0.45
9,A3G G30A A45G U72A,0.08
10,A3G G30A A64G,0.37
11,A3G G30A A64G U78A,0.07
12,A3G G30A U76C,0.18
13,A3G G30U U41C,0.29
14,A3G G33A A45U G55A,0.56
15,A3G G33A G46U,0.1
16,A3G G33A U41A U43A U58C,0.09
17,A3G G33U A65G,0.24
18,A3G G36A A45U U54C,0.1
19,A3G G36A U54C,0.27
20,A3G G36A U58C U67C U69C U72C,0.08
21,A3G G36U U43C U51A G61A,0.11
22,A3G G42A A56U U69C,0.43
23,A3G G52A A56U A64G,0.78
